# Assay results published in the supplement of paper PMC8728848.
# This is one part of the list.
# B1: Na-CTL-1 (Necator americanus) (protein)
# chain: MQRSFLLLLVVLAGAWAVNTTIPLKLMGGFTPMKYQCVGRVSDIWADVLFLIESSDMITKSGFRQVIAFITATTKKMTIGQDEKQTRVGFITYGEEAKLIYDLDHWRSTEKLSDLVQKIPYVKSSGTNIAAAIALANKVFNSPTHRPNVPKVMVIVANGLKKGSQNPIPVATAFKDFGGIIITIEYTQYDNIQVPILKKIASEGYNIRSNDEDFSVRTLTNMLLQANCFCPDHYVPFRVNNPEFGCFVTAKIPSMWRDAAEMCRAVEEGKLVKVENEEKAAFIMKLVGPKKEAWIGLRYYGNKFQWTDGTKLNADDFNLWPEDIKELNGPHCVSMYQDQKDKKYYWRAGKCLEDMRYVCEVQPCSASNYCSEPVFMYRQKHRALLPAPPPPPN
# Legend:
# Assay in all cases: glycan array binding signal (z-score within array); higher = stronger binding
# Conditions in all cases: glycan notation: IUPAC condensed, linker removed
# GlcNAc(b1-3)Gal(b1-4)Glc = target: GlcNAc(b1-3)Gal(b1-4)Glc
# Method in brief: (§1)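 Columns mapping to the same glycan were averaged after glycan names were converted to IUPAC-condensed notation. The data come from 3228 arrays in the Consortium for Functional Glycomics database, limited to those with an available protein sequence. Binding is reported as a within-array Z-score averaged across arrays of one protein sequence and across linkers.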
# [1] = target: GlcNAc(b1-3)Gal(b1-4)GlcNAc
# Method in brief: as §1
# [2] = target: GlcNAc(b1-3)Gal(b1-4)GlcNAc(b1-2)Man(a1-3)[GlcNAc(b1-3)Gal(b1-4)GlcNAc(b1-2)Man(a1-6)]Man(b1-4)GlcNAc(b1-4)GlcNAc
# Method in brief: as §1
# [3] = target: GlcNAc(b1-3)Gal(b1-4)GlcNAc(b1-2)Man(a1-3)[GlcNAc(b1-3)Gal(b1-4)GlcNAc(b1-2)Man(a1-6)]Man(b1-4)GlcNAc(b1-4)[Fuc(a1-6)]GlcNAc
# Method in brief: as §1
# [4] = target: GlcNAc(b1-3)Gal(b1-4)GlcNAc(b1-2)[GlcNAc(b1-3)Gal(b1-4)GlcNAc(b1-6)]Man(a1-6)[GlcNAc(b1-3)Gal(b1-4)GlcNAc(b1-2)Man(a1-3)]Man(b1-4)GlcNAc(b1-4)GlcNAc
# Method in brief: as §1
# [5] = target: GlcNAc(b1-3)Gal(b1-4)GlcNAc(b1-3)Gal(b1-4)GlcNAc
# Method in brief: as §1
# [6] = target: GlcNAc(b1-3)Gal(b1-4)GlcNAc(b1-3)Gal(b1-4)GlcNAc(b1-2)Man(a1-3)[GlcNAc(b1-3)Gal(b1-4)GlcNAc(b1-3)Gal(b1-4)GlcNAc(b1-2)Man(a1-6)]Man(b1-4)GlcNAc(b1-4)GlcNAc
# Method in brief: as §1
# [7] = target: GlcNAc(b1-3)Gal(b1-4)GlcNAc(b1-3)Gal(b1-4)GlcNAc(b1-2)Man(a1-3)[GlcNAc(b1-3)Gal(b1-4)GlcNAc(b1-3)Gal(b1-4)GlcNAc(b1-2)Man(a1-6)]Man(b1-4)GlcNAc(b1-4)[Fuc(a1-6)]GlcNAc
# Method in brief: as §1
# [8] = target: GlcNAc(b1-3)Gal(b1-4)GlcNAc(b1-3)Gal(b1-4)GlcNAc(b1-2)[GlcNAc(b1-3)Gal(b1-4)GlcNAc(b1-3)Gal(b1-4)GlcNAc(b1-6)]Man(a1-6)[GlcNAc(b1-3)Gal(b1-4)GlcNAc(b1-3)Gal(b1-4)GlcNAc(b1-2)Man(a1-3)]Man(b1-4)GlcNAc(b1-4)[Fuc(a1-6)]GlcNAc
# Method in brief: as §1
# [9] = target: GlcNAc(b1-3)Gal(b1-4)GlcNAc(b1-3)Gal(b1-4)GlcNAc(b1-3)Gal(b1-4)GlcNAc(b1-2)Man(a1-3)[GlcNAc(b1-3)Gal(b1-4)GlcNAc(b1-3)Gal(b1-4)GlcNAc(b1-3)Gal(b1-4)GlcNAc(b1-2)Man(a1-6)]Man(b1-4)GlcNAc(b1-4)GlcNAc
# Method in brief: as §1
# [10] = target: GlcNAc(b1-3)Gal(b1-4)GlcNAc(b1-3)Gal(b1-4)GlcNAc(b1-3)Gal(b1-4)GlcNAc(b1-2)Man(a1-3)[GlcNAc(b1-3)Gal(b1-4)GlcNAc(b1-3)Gal(b1-4)GlcNAc(b1-3)Gal(b1-4)GlcNAc(b1-2)Man(a1-6)]Man(b1-4)GlcNAc(b1-4)[Fuc(a1-6)]GlcNAc
# Method in brief: as §1
# [11] = target: GlcNAc(b1-3)Gal(b1-4)GlcNAc(b1-3)Gal(b1-4)GlcNAc(b1-3)Gal(b1-4)GlcNAc(b1-2)[GlcNAc(b1-3)Gal(b1-4)GlcNAc(b1-3)Gal(b1-4)GlcNAc(b1-3)Gal(b1-4)GlcNAc(b1-6)]Man(a1-6)[GlcNAc(b1-3)Gal(b1-4)GlcNAc(b1-3)Gal(b1-4)GlcNAc(b1-3)Gal(b1-4)GlcNAc(b1-2)Man(a1-3)]Man(b1-4)GlcNAc(b1-4)[Fuc(a1-6)]GlcNAc
# Method in brief: as §1
# [12] = target: GlcNAc(b1-3)Gal(b1-4)GlcNAc(b1-3)Gal(b1-4)GlcNAc(b1-3)Gal(b1-4)GlcNAc(b1-3)Gal(b1-4)GlcNAc(b1-2)Man(a1-3)[GlcNAc(b1-3)Gal(b1-4)GlcNAc(b1-3)Gal(b1-4)GlcNAc(b1-3)Gal(b1-4)GlcNAc(b1-3)Gal(b1-4)GlcNAc(b1-2)Man(a1-6)]Man(b1-4)GlcNAc(b1-4)GlcNAc
# Method in brief: as §1
# [13] = target: GlcNAc(b1-3)Gal(b1-4)GlcNAc(b1-3)Gal(b1-4)GlcNAc(b1-3)Gal(b1-4)GlcNAc(b1-3)Gal(b1-4)GlcNAc(b1-2)Man(a1-3)[GlcNAc(b1-3)Gal(b1-4)GlcNAc(b1-3)Gal(b1-4)GlcNAc(b1-3)Gal(b1-4)GlcNAc(b1-3)Gal(b1-4)GlcNAc(b1-2)Man(a1-6)]Man(b1-4)GlcNAc(b1-4)[Fuc(a1-6)]GlcNAc
# Method in brief: as §1
# [14] = target: GlcNAc(b1-3)Gal(b1-4)GlcNAc(b1-3)Gal(b1-4)GlcNAc(b1-3)Gal(b1-4)GlcNAc(b1-3)Gal(b1-4)GlcNAc(b1-2)[GlcNAc(b1-3)Gal(b1-4)GlcNAc(b1-3)Gal(b1-4)GlcNAc(b1-3)Gal(b1-4)GlcNAc(b1-3)Gal(b1-4)GlcNAc(b1-6)]Man(a1-6)[GlcNAc(b1-3)Gal(b1-4)GlcNAc(b1-3)Gal(b1-4)GlcNAc(b1-3)Gal(b1-4)GlcNAc(b1-3)Gal(b1-4)GlcNAc(b1-2)Man(a1-3)]Man(b1-4)GlcNAc(b1-4)[Fuc(a1-6)]GlcNAc
# Method in brief: as §1
# [15] = target: GlcNAc(b1-3)Gal(b1-4)GlcNAc(b1-3)Gal(b1-4)GlcNAc(b1-3)GalNAc
# Method in brief: as §1
# [16] = target: GlcNAc(b1-3)Gal(b1-4)GlcNAc(b1-3)GalNAc
# Method in brief: as §1
# [17] = target: GlcNAc(b1-3)Gal(b1-4)GlcNAc(b1-3)[GlcNAc(b1-3)Gal(b1-4)GlcNAc(b1-3)]GalNAc
# Method in brief: as §1
# [18] = target: GlcNAc(b1-3)Gal(b1-4)GlcNAc(b1-6)[Gal(b1-3)]GalNAc
# Method in brief: as §1
# [19] = target: GlcNAc(b1-3)Gal(b1-4)GlcNAc(b1-6)[GlcNAc(b1-3)Gal(b1-3)]GalNAc
# Method in brief: as §1
# [20] = target: GlcNAc(b1-3)Gal(b1-4)GlcNAc(b1-6)[GlcNAc(b1-3)]Gal(b1-4)GlcNAc
# Method in brief: as §1
# GlcNAc(b1-3)GalNAc = target: GlcNAc(b1-3)GalNAc
# Method in brief: as §1
# GlcNAc(b1-3)Man = target: GlcNAc(b1-3)Man
# Method in brief: as §1
# [21] = target: GlcNAc(b1-3)[GlcNAc(b1-4)][GlcNAc(b1-6)]GlcNAc
# Method in brief: as §1
# [22] = target: GlcNAc(b1-3)[GlcNAc(b1-6)]Gal(b1-4)GlcNAc
# Method in brief: as §1
# [23] = target: GlcNAc(b1-3)[GlcNAc(b1-6)]GalNAc
# Method in brief: as §1
# [24] = target: GlcNAc(b1-4)Gal(b1-4)GlcNAc
# Method in brief: as §1
# GlcNAc(b1-4)GlcNAc = target: GlcNAc(b1-4)GlcNAc
# Method in brief: as §1
# [25] = target: GlcNAc(b1-4)GlcNAc(b1-4)GlcNAc
# Method in brief: as §1
# [26] = target: GlcNAc(b1-4)GlcNAc(b1-4)GlcNAc(b1-4)GlcNAc(b1-4)GlcNAc
# Method in brief: as §1
# [27] = target: GlcNAc(b1-4)GlcNAc(b1-4)GlcNAc(b1-4)GlcNAc(b1-4)GlcNAc(b1-4)GlcNAc
# Method in brief: as §1
# [28] = target: GlcNAc(b1-4)[GlcNAc(b1-6)]GalNAc
# Method in brief: as §1
# [29] = target: GlcNAc(b1-6)Gal(b1-4)GlcNAc
# Method in brief: as §1
# GlcNAc(b1-6)GalNAc = target: GlcNAc(b1-6)GalNAc
# Method in brief: as §1
# [30] = target: GlcNAc6S(b1-3)Gal(b1-4)GlcNAc
# Method in brief: as §1
# Kdn(a2-3)Gal(b1-3)GalNAc = target: Kdn(a2-3)Gal(b1-3)GalNAc
# Method in brief: as §1
# Kdn(a2-3)Gal(b1-3)GlcNAc = target: Kdn(a2-3)Gal(b1-3)GlcNAc
# Method in brief: as §1
binder,measurement,setting,value
B1,glycan array binding signal (z-score),GlcNAc(b1-3)Gal(b1-4)Glc,-0.137
same,glycan array binding signal (z-score),[1],-0.383
same,glycan array binding signal (z-score),[2],-0.237
same,glycan array binding signal (z-score),[3],-0.347
same,glycan array binding signal (z-score),[4],0.423
same,glycan array binding signal (z-score),[5],0.102
same,glycan array binding signal (z-score),[6],0.413
same,glycan array binding signal (z-score),[7],0.461
same,glycan array binding signal (z-score),[8],0.085
same,glycan array binding signal (z-score),[9],-0.532
same,glycan array binding signal (z-score),[10],0.105
same,glycan array binding signal (z-score),[11],1.69
same,glycan array binding signal (z-score),[12],0.73
same,glycan array binding signal (z-score),[13],-0.264
same,glycan array binding signal (z-score),[14],0.437
same,glycan array binding signal (z-score),[15],-0.252
same,glycan array binding signal (z-score),[16],-0.42
same,glycan array binding signal (z-score),[17],-0.552
same,glycan array binding signal (z-score),[18],-0.66
same,glycan array binding signal (z-score),[19],-0.168
same,glycan array binding signal (z-score),[20],0.097
same,glycan array binding signal (z-score),GlcNAc(b1-3)GalNAc,-0.263
same,glycan array binding signal (z-score),GlcNAc(b1-3)Man,-0.488
same,glycan array binding signal (z-score),[21],-0.198
same,glycan array binding signal (z-score),[22],-0.476
same,glycan array binding signal (z-score),[23],-0.058
same,glycan array binding signal (z-score),[24],0.103
same,glycan array binding signal (z-score),GlcNAc(b1-4)GlcNAc,-0.188
same,glycan array binding signal (z-score),[25],-0.5
same,glycan array binding signal (z-score),[26],-0.442
same,glycan array binding signal (z-score),[27],0.934
same,glycan array binding signal (z-score),[28],-0.551
same,glycan array binding signal (z-score),[29],-0.301
same,glycan array binding signal (z-score),GlcNAc(b1-6)GalNAc,-0.055
same,glycan array binding signal (z-score),[30],-0.311
same,glycan array binding signal (z-score),Kdn(a2-3)Gal(b1-3)GalNAc,-0.14
same,glycan array binding signal (z-score),Kdn(a2-3)Gal(b1-3)GlcNAc,-0.552
